Test results published in the supplement of paper PMC3334620.
Whole data set: some 33,000 sequences, median “E-score (-0.5 to 0.5)” near -0.041, cut for the highest 2% near 0.37. The list shows a part of the results.

Each sequence was assayed against T1, Ecm22 (UniProt Q05958) (assay: PBM E-score (8-mer binding enrichment) (E-score (-0.5 to 0.5)); higher = stronger / more preferred TF binding; most listed sequences are background and not binding sites). Details: protein concentration: 200 nM; construct: GST-full length.
T1 sequence: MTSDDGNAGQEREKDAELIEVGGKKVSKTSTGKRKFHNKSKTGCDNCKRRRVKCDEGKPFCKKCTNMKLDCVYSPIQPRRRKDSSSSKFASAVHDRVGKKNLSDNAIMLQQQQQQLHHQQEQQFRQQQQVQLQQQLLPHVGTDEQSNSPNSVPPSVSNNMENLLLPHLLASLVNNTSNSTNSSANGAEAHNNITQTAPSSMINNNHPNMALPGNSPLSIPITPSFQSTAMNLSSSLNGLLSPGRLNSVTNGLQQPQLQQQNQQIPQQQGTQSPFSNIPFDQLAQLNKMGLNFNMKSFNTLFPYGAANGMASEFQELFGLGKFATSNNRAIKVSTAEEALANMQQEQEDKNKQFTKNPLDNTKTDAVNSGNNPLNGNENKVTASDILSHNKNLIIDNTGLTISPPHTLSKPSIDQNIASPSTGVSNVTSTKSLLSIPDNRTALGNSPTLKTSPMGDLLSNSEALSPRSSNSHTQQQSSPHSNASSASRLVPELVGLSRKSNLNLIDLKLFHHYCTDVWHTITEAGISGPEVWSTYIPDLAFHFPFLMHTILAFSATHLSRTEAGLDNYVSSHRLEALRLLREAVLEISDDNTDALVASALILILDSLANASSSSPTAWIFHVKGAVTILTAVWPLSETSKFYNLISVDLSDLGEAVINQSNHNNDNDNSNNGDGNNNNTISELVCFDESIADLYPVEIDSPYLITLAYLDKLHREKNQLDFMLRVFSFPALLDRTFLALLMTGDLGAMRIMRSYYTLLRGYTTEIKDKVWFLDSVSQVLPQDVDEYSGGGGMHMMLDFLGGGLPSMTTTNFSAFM
Method in brief: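 For each ungapped eight-base word taken together with its reverse complement, the Universal PBM Analysis Suite assigned an E-score. Binding data came from GST-tagged yeast transcription factors, applied at about 100-200 nM, on universal all-10-mer Agilent arrays made double-stranded by primer extension. Fluorescent anti-GST marked bound protein, and scans were normalised with masliner.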

Going from CTTTTCAC to CTTGGTAC, the “PBM E-score” value rises from -0.169 to 0.226.

First: AATATGCC
Second: CGAGCGGA
The “PBM E-score” value of the first is lower: -0.0852 for the first, 0.33 for the second.

Compared with CAGTAATA, CAATGCAC is lower in “PBM E-score” value: 0.142 for the first, -0.087 for the second.

First: CCACAGTA
Second: ACGGGCAG
The “PBM E-score” value of the first is lower: -0.03 for the first, 0.115 for the second.

Compared with ATTTGTTA, GAGATTAA is higher in “PBM E-score” value: 0.0317 for the first, 0.0376 for the second.

Compared with AGAGGCTC, CATTAATG is higher in “PBM E-score” value: -0.0214 for the first, 0.0748 for the second.

Going from ACCCTCTA to CATCTTTA, the “PBM E-score” value rises from -0.176 to 0.0521.

First: AAAATTAT
Second: AACTGCGT
The “PBM E-score” value of the first is lower: 0.0722 for the first, 0.0886 for the second.

Compared with ACATGGAT, AACGACAC is higher in “PBM E-score” value: -0.196 for the first, 0.421 for the second.

First: ATCCGGAA
Second: ATAGTCCC
The “PBM E-score” value of the first is higher: 0.0357 for the first, -0.286 for the second.

First: CTTGTTTC
Second: GATGAACA
The “PBM E-score” value of the first is higher: 0.0458 for the first, -0.0467 for the second.

First: ATCTTCAT
Second: CCTCGTGC
The “PBM E-score” value of the first is higher: 0.109 for the first, 0.0902 for the second.

Going from CCTCGGAA to GCTTAGCA, the “PBM E-score” value falls from 0.348 to -0.129.

Compared with ACTCATAG, CAAGCGAC is higher in “PBM E-score” value: -0.141 for the first, 0.147 for the second.

First: ATCAGAGC
Second: CTAGCCCC
The “PBM E-score” value of the first is higher: 0.0133 for the first, -0.206 for the second.

First: ATACGTTA
Second: AACGATAG
The “PBM E-score” value of the first is lower: 0.276 for the first, 0.345 for the second.

Going from GCACTAGA to AGTCCAAT, the “PBM E-score” value falls from -0.0812 to -0.245.

Going from TCAACACA to CTCAATAA, the “PBM E-score” value falls from -0.0213 to -0.248.

Going from GTAGTCCA to CTCCTCAC, the “PBM E-score” value rises from -0.226 to -0.071.

First: TACCGTAA
Second: GCGCGGCA
The “PBM E-score” value of the first is higher: 0.238 for the first, 0.122 for the second.

Going from GCTATCGA to AGGGCACG, the “PBM E-score” value falls from 0.0437 to 0.0421.

Going from AAAGGGTC to TAGGTGAA, the “PBM E-score” value rises from -0.109 to 0.052.

Going from ATGTGTTA to CTCCCCAG, the “PBM E-score” value falls from 0.166 to -0.237.

First: TCTCTTCA
Second: AAAGCCTA
The “PBM E-score” value of the first is higher: -0.0952 for the first, -0.208 for the second.

First: AGTCTCGC
Second: CTAGGGCA
The “PBM E-score” value of the first is higher: 0.185 for the first, -0.339 for the second.

Compared with AACGGCAA, CGCGTAAA is higher in “PBM E-score” value: 0.0983 for the first, 0.264 for the second.

First: GCGACCAA
Second: CATTCATA
The “PBM E-score” value of the first is higher: 0.15 for the first, -0.0427 for the second.

First: ACCCTAAG
Second: ATGCATAA
The “PBM E-score” value of the first is lower: -0.2 for the first, -0.163 for the second.

First: CCTGCACA
Second: CCCGGTAC
The “PBM E-score” value of the first is lower: -0.294 for the first, 0.078 for the second.

Compared with CTTGGTGC, GAATCCTA is higher in “PBM E-score” value: -0.16 for the first, -0.0686 for the second.

Going from ATGCATCC to CTTCCGCA, the “PBM E-score” value rises from -0.121 to 0.0387.

First: CGAGTGGC
Second: ACATATCA
The “PBM E-score” value of the first is higher: 0.212 for the first, 0.0352 for the second.

Going from CTGGAAAG to CTATGGAA, the “PBM E-score” value rises from -0.292 to -0.102.

Compared with ACCTTGGC, CAAACATG is higher in “PBM E-score” value: -0.206 for the first, -0.135 for the second.

Going from CTTGGTTC to TGCGTCCA, the “PBM E-score” value falls from 0.131 to -0.162.

Compared with AGTTCGTA, AGCCAAAA is lower in “PBM E-score” value: 0.449 for the first, -0.113 for the second.

First: ACGTCGTC
Second: CACAATAC
The “PBM E-score” value of the first is higher: 0.175 for the first, -0.0903 for the second.

Compared with CCTCTCAC, CGGCATAA is higher in “PBM E-score” value: -0.211 for the first, 0.09 for the second.

First: GACTATGA
Second: CCCAAGTC
The “PBM E-score” value of the first is higher: -0.0913 for the first, -0.202 for the second.

Compared with CACAGAAA, CTGCCTCC is lower in “PBM E-score” value: -0.00434 for the first, -0.173 for the second.

Going from CTCAGGGC to GAAACGCA, the “PBM E-score” value rises from -0.131 to 0.0852.

Compared with TTAACCAA, GAATACCA is higher in “PBM E-score” value: -0.142 for the first, -0.0271 for the second.

First: GTAGGAAC
Second: AAGCCGGG
The “PBM E-score” value of the first is higher: 0.249 for the first, 0.0595 for the second.

Going from TCCCTACA to AAAGGGGC, the “PBM E-score” value falls from -0.0238 to -0.135.

Going from CGTTGTGA to CCTGATCG, the “PBM E-score” value falls from 0.0758 to 0.0603.

Compared with GAGCTAAA, TCCTGCCA is lower in “PBM E-score” value: 0.0186 for the first, -0.367 for the second.

Going from AAATTGAT to ATTTGTGA, the “PBM E-score” value falls from -0.00484 to -0.0689.

Going from ATGGAAAA to ACCTCCAA, the “PBM E-score” value falls from -0.0284 to -0.234.

Going from ACGGGTCA to AATAACAC, the “PBM E-score” value rises from -0.0637 to 0.0353.

Going from GACCAAGC to CCACCAAG, the “PBM E-score” value falls from -0.217 to -0.266.

Going from AAACCCAG to ACATCAAC, the “PBM E-score” value rises from -0.102 to -0.00596.

Compared with GGACAAAC, ATCAATGC is lower in “PBM E-score” value: -0.0322 for the first, -0.109 for the second.

Compared with AACATCCA, GAAAAGGA is higher in “PBM E-score” value: -0.0685 for the first, 0.0368 for the second.

Going from ATAGCCAG to CGACAAGC, the “PBM E-score” value rises from -0.174 to 0.0884.

Compared with CAACATCC, CGCTGTGC is lower in “PBM E-score” value: -0.054 for the first, -0.0668 for the second.

First: CCGGGAGC
Second: CCAAAGTA
The “PBM E-score” value of the first is higher: 0.0914 for the first, -0.0944 for the second.

First: AGGCTGAG
Second: ACATCAAT
The “PBM E-score” value of the first is lower: -0.288 for the first, 0.068 for the second.

Compared with CAAACCAC, GAAGTTAA is higher in “PBM E-score” value: -0.0543 for the first, 0.0205 for the second.

Compared with AAATACAT, ACAACTGC is lower in “PBM E-score” value: -0.0825 for the first, -0.221 for the second.

Going from AGGGACCT to ATGATCTG, the “PBM E-score” value falls from 0.0608 to -0.111.

First: GATTCGGC
Second: ATCAAAGA
The “PBM E-score” value of the first is higher: 0.0943 for the first, -0.261 for the second.

Compared with CCCTAGAG, GCCTATCC is higher in “PBM E-score” value: -0.266 for the first, -0.0429 for the second.

Compared with GTAGCTCA, TAACGACA is higher in “PBM E-score” value: -0.155 for the first, 0.352 for the second.

Going from AGGATGGA to AGTACCCC, the “PBM E-score” value falls from 0.11 to -0.0697.

Going from ATCGACAA to ATTGCAAT, the “PBM E-score” value falls from 0.0783 to -0.0172.

First: ACGTTCAA
Second: GGATAACA
The “PBM E-score” value of the first is higher: 0.188 for the first, -0.195 for the second.

Compared with AGCATGTC, ATATTAGG is higher in “PBM E-score” value: -0.214 for the first, 0.152 for the second.

First: CTTGGGTA
Second: ATCGGCGG
The “PBM E-score” value of the first is higher: -0.0194 for the first, -0.0755 for the second.

Going from GACTAGAA to CGGACCCC, the “PBM E-score” value rises from 0.0381 to 0.109.

Going from ACATCAGC to GACTCACC, the “PBM E-score” value rises from -0.217 to -0.155.

Going from GCCACTCA to TATAGGAA, the “PBM E-score” value rises from -0.196 to 0.068.

Compared with CTTCGAAC, GTATCAGA is lower in “PBM E-score” value: 0.164 for the first, -0.00037 for the second.

Going from GGACTGCA to CAGTTGTC, the “PBM E-score” value rises from -0.254 to -0.0843.

First: AGCCTGCG
Second: ATGTCAAT
The “PBM E-score” value of the first is lower: -0.17 for the first, -0.0163 for the second.

Compared with GTCCCCAC, GAGTGGTA is higher in “PBM E-score” value: -0.159 for the first, -0.0513 for the second.

Going from AATCGAAC to ACGTGCCT, the “PBM E-score” value falls from 0.153 to -0.0501.

Going from ATTTGGGA to AAACTAAT, the “PBM E-score” value rises from -0.156 to 0.127.

Going from ATCTTCGG to GTTACAAC, the “PBM E-score” value falls from 0.215 to 0.0475.

First: ATCCCATC
Second: ACCACCAC
The “PBM E-score” value of the first is higher: -0.153 for the first, -0.174 for the second.

Compared with AGCTAAGG, AGAAATTC is higher in “PBM E-score” value: -0.402 for the first, 0.049 for the second.

First: AAATCGCA
Second: GCAGATTA
The “PBM E-score” value of the first is higher: 0.0631 for the first, -0.119 for the second.

Compared with CAGTGCCG, AATTATTC is lower in “PBM E-score” value: 0.0566 for the first, 0.0451 for the second.

Going from CGGGGTAG to CAAGGTGG, the “PBM E-score” value falls from -0.0852 to -0.131.

Going from CACAACGA to CCTTGTGA, the “PBM E-score” value falls from 0.255 to -0.154.

Going from CGCTGCCC to CGGTTTCA, the “PBM E-score” value rises from -0.162 to -0.0914.

Going from ACAATCCG to GGTAAAAC, the “PBM E-score” value falls from 0.149 to 0.111.
